Source: ChEMBL document CHEMBL1201862, “PubChem BioAssay data set” (2004)
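Cultured in 96-well plates, cells were exposed to test compound for 48 hours across five concentrations. At the GI50, growth is halved.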 Active and inactive are the calls of the source. Rule as the data show it: active = GI50 up to about 1.1 µM and inactive = higher.

Tested on: NCI-H322M
Assay: NCI anticancer screen, dose series, 48 h

Q: For `COc1ccc(OC)c2c(=O)c3ccccc3[nH]c12`, which GI50 is on record?
A: The GI50 was inactive: 60.4 µM.

Q: For `c1cc(CSSCc2ccncc2)ccn1`, which GI50 is on record?
A: Its GI50 is inactive: 57.9 µM.

Q: How did the GI50 turn out when `c1ccc2c3c(c(N4CCOCC4)nc2c1)CCCC3` was run?
A: Its GI50 is inactive: 28.5 µM.

Q: `COc1ccc(C=O)cc1O[Si](C)(C)C(C)(C)C` was tested. Which GI50 did it give?
A: The GI50 was inactive: > 100 µM.

Q: For `Cn1cco/c1=N/c1ccc(Cl)c(Cl)c1`, which GI50 is on record?
A: The GI50 was inactive: > 10 µM.

Q: `O=c1[nH]c(=O)n(CCOc2ccccc2)cc1Nc1ccccc1` was tested. Which GI50 did it give?
A: Its GI50 is inactive: > 100 µM.

Q: Which GI50 does the source give for `O=C1NC(=S)NC(=O)C1=Cc1ccc2ccccc2n1` here?
A: The GI50 was inactive: > 100 µM.

Q: `O=C(/C=C/c1cccc(Br)c1)c1ccc(Cl)cc1` was tested. Which GI50 did it give?
A: The GI50 was inactive: 18.1 µM.

Q: `CCOc1cc(NC(C)=O)ccc1C(=O)NN1C(=O)CSC1c1ccc(O)c(OC)c1` (centres undefined) was tested. Which GI50 did it give?
A: The GI50 was inactive: > 100 µM.

Q: For `COC(=O)C#CC1(O)C=CC(=O)C=C1`, which GI50 is on record?
A: Its GI50 is inactive: 9.84 µM.

Q: For `O=C(CO)CC(=O)C(=O)Nc1cccc(C(F)(F)F)c1`, which GI50 is on record?
A: The GI50 was inactive: > 100 µM.

Q: How did the GI50 turn out when `OCCc1ccsc1-c1sc(-c2cc(CCO)c(-c3sc(-c4cc(CCO)c(-c5sccc5CCO)s4)cc3CCO)s2)cc1CCO` was run?
A: Its GI50 is inactive: 1.27 µM.

Q: For `CN1C/C(=C\C=C\c2ccccc2)C(=O)/C(=C/C=C/c2ccccc2)C1`, which GI50 is on record?
A: The GI50 was inactive: > 100 µM.

Q: How did the GI50 turn out when `CCCCCC(=O)Nc1[nH]nnc1C(N)=O` was run?
A: The GI50 was inactive: > 100 µM.

Q: With `OC(c1ccccc1)c1c(-c2ccccc2)oc(-c2ccccc2)c1C(O)c1ccccc1` (centres undefined) as the compound, how does the GI50 read?
A: Its GI50 is inactive: 12.6 µM.

Q: Which GI50 does the source give for `COC(=O)C(CC1=C(O)Nc2ccccc2N1)/C(=N/NC(N)=O)C(=O)Nc1ccccc1C` (centres undefined) here?
A: The GI50 was inactive: > 100 µM.

Q: Which GI50 does the source give for `N#Cc1ccc(/N=N/N2CCCC2)cc1` here?
A: The GI50 was inactive: > 100 µM.

Q: For `CCCCOC(=O)NC(Nc1ccc(S(N)(=O)=O)cc1)(C(F)(F)F)C(F)(F)F`, which GI50 is on record?
A: The GI50 was inactive: > 100 µM.

Q: Which GI50 does the source give for `C=C(Br)COc1ccc2c(C)cc(=O)oc2c1` here?
A: The GI50 was inactive: > 100 µM.

Q: For `Oc1c(O)c(Cc2ccccc2)c(Cc2ccccc2)c(Cc2ccccc2)c1Cc1ccccc1`, which GI50 is on record?
A: The GI50 was inactive: > 10 µM.

Q: With `CCOP(=O)(OCC)/C(C#N)=C\c1cccc2ccccc12` as the compound, how does the GI50 read?
A: The GI50 was inactive: > 62.5 µM.

Q: `CC[C@H](C)[C@H](NC(=O)[C@H](Cc1ccc(O)cc1)NCC(F)(F)F)C(=O)OC(C)(C)C` was tested. Which GI50 did it give?
A: The GI50 was inactive: 8.73 µM.

Q: How did the GI50 turn out when `COc1cc2c(c3c1c(=O)c1ccccc1n3C)C=CC1(CCCC1)O2` was run?
A: Its GI50 is inactive: 14.6 µM.

Q: How did the GI50 turn out when `COc1cc(C(=O)N(C(=O)N2CCCCC2)c2ccccc2)cc(OC)c1OC` was run?
A: The GI50 was inactive: > 100 µM.

Q: For `c1ccc2c(c1)CC1COc3ccccc3C1O2` (centres undefined), which GI50 is on record?
A: Its GI50 is inactive: 53.8 µM.

Q: How did the GI50 turn out when `O=C(O/N=C1/CCC/C1=C\c1ccccc1)c1ccccc1` was run?
A: The GI50 was inactive: > 100 µM.

Q: How did the GI50 turn out when `Clc1ccc(-c2nn3c(COc4cccc(OCc5nnc6sc(-c7ccc(Cl)cc7)nn56)c4)nnc3s2)cc1` was run?
A: The GI50 was inactive: 37 µM.

Q: Which GI50 does the source give for `CC(=O)/C=C/c1cccc(N=S)c1` here?
A: The GI50 was inactive: > 100 µM.

Q: `C=CCn1c(=O)c(C)cn(/C(=C/C(=O)OCC)C(=O)OCC)c1=O` was tested. Which GI50 did it give?
A: Its GI50 is inactive: 63.8 µM.

Q: Which GI50 does the source give for `O=C1C=Cc2noc3cccc1c23` here?
A: The GI50 was inactive: 16.2 µM.

Q: `COC1(OC)C2(Cl)C(Cl)=C(Cl)C1(Cl)C1C2C2CC1(C(=O)O)c1ccccc12` (centres undefined) was tested. Which GI50 did it give?
A: The GI50 was inactive: 49.2 µM.

Q: With `O=c1nc(N2CCNCC2)oc2cc(Cl)oc(=O)c12` as the compound, how does the GI50 read?
A: The GI50 was inactive: 16.1 µM.

Q: Which GI50 does the source give for `O=C(c1ccccc1)c1ccc2[nH]c(-c3c(Cl)c(Cl)c(Cl)c(Cl)c3C(=O)N/N=C/c3ccccc3)nc2c1` here?
A: The GI50 was inactive: 30.3 µM.

Q: For `Brc1ccc(C2SCc3nc4ccccc4n32)cc1` (centres undefined), which GI50 is on record?
A: The GI50 was inactive: 16.4 µM.

Q: `CSC12c3cc(C)n(-c4ccc(I)cc4)c3CC(C)(C)CN1C(=O)C2Oc1ccccc1` (centres undefined) was tested. Which GI50 did it give?
A: Its GI50 is inactive: > 100 µM.

Q: How did the GI50 turn out when `N#CCCN(c1ccc(/C=N/c2ccccc2)cc1)S(=O)(=O)c1ccccc1` was run?
A: The GI50 was inactive: 66.8 µM.

Q: Which GI50 does the source give for `COc1ccc2c(c1)C(=O)OCCC2` here?
A: Its GI50 is inactive: > 100 µM.

Q: `CC(C)C1=CC(=O)[C@@](C)(C2[C@H](O)C[C@@]3(C)[C@@H]4CC=C5[C@@H](CC[C@@H](OC6OCC(O)C(O)C6OC6OC(C)C(O)C(O)C6O)C5(C)C)[C@]4(C)C(=O)C[C@]23C)O1` (some centres undefined) was tested. Which GI50 did it give?
A: Its GI50 is inactive: > 100 µM.

Q: How did the GI50 turn out when `OC(O)(C(F)(F)F)C(F)(F)F` was run?
A: Its GI50 is inactive: > 100 µM.

Q: With `COc1ccc(C2CC(c3c(O)ccc4ccccc34)=NN2C(C)=O)cc1OC` (centres undefined) as the compound, how does the GI50 read?
A: The GI50 was inactive: 39 µM.

Q: How did the GI50 turn out when `CC(=O)OCC12C(OC(C)=O)C[C@@H](C)C3(CC(c4ccoc4)OC3=O)C1CCC(OC(C)=O)C21CO1` (some centres undefined) was run?
A: Its GI50 is inactive: > 100 µM.

Q: How did the GI50 turn out when `O=C1C2=C(C3=NCCc4c[nH]c1c43)c1c(cc(Br)c(O)c1Br)CCN2` was run?
A: The GI50 was inactive: 17.2 µM.

Q: `Cc1noc(NS(=O)(=O)c2ccc(NC(=O)c3ccc4[nH]c5ccccc5c(=O)c4c3)cc2)c1C` was tested. Which GI50 did it give?
A: Its GI50 is inactive: 27.3 µM.

Q: `CC(=O)c1c2c(cc3c1CC1(C3)Cc3cc4c(c(C(C)=O)c3C1)CCC4)CCC2` was tested. Which GI50 did it give?
A: The GI50 was inactive: > 100 µM.

Q: How did the GI50 turn out when `N#CCCN(c1ccc(/C=N/c2ccc(C(=O)O)cc2)cc1)S(=O)(=O)c1ccccc1` was run?
A: Its GI50 is inactive: > 100 µM.

Q: Which GI50 does the source give for `N#CC(Nc1ccccc1)c1ccc(C(C#N)Nc2ccccc2)cc1` (centres undefined) here?
A: The GI50 was inactive: > 100 µM.

Q: `Cc1ccc(S(=O)(=O)n2cc(/C=C/C#N)c(-c3cn(S(=O)(=O)c4ccc(C)cc4)cc3-c3cn(S(=O)(=O)c4ccc(C)cc4)cc3/C=C/C#N)c2)cc1` was tested. Which GI50 did it give?
A: The GI50 was inactive: > 100 µM.

Q: Which GI50 does the source give for `C#CCn1c(=O)c(Cl)cn(/C(=C/C(=O)OCC)C(=O)OCC)c1=O` here?
A: Its GI50 is inactive: > 41.6 µM.

Q: Which GI50 does the source give for `c1ccc(-c2ccc(-c3cc4ccccc4[nH]3)cc2)cc1` here?
A: The GI50 was inactive: > 100 µM.

Q: For `CN(C)/N=N/c1nc2c(c(=O)n(C)c(=O)n2C)n1CC(O)CO` (centres undefined), which GI50 is on record?
A: Its GI50 is inactive: > 100 µM.

Q: Which GI50 does the source give for `CNc1nc(N)cc(O)n1` here?
A: The GI50 was inactive: > 100 µM.

Q: For `COC(=O)C1=C(OC(=O)/C(=C/c2ccc(Cl)cc2)c2ccc(Cl)cc2)C(C(=O)OC)[C@]2(O)[C@@H](C(=O)OC)[C@H]1C[C@@H](c1ccccc1)[C@@H]2C(=O)OC` (some centres undefined), which GI50 is on record?
A: Its GI50 is inactive: > 100 µM.

Q: `CCOC(=O)/N=c1/nc(N(C)C)ss1` was tested. Which GI50 did it give?
A: Its GI50 is inactive: > 100 µM.

Q: Which GI50 does the source give for `C=C[C@@]1(C)CC(=O)[C@]2(O)[C@@]3(C)[C@@H](O)CCC(C)(C)[C@@H]3[C@H](O)[C@@H](OC(C)=O)[C@@]2(C)O1` here?
A: Its GI50 is inactive: > 100 µM.

Q: With `O=C(CC(=O)c1cccc2ccccc12)C(=O)Nc1ccc(Cl)cc1` as the compound, how does the GI50 read?
A: The GI50 was inactive: > 100 µM.

Q: `CCOC(=O)C(=CNc1ccc(S(N)(=O)=O)cc1)C(=O)OCC` was tested. Which GI50 did it give?
A: The GI50 was inactive: > 100 µM.

Q: For `COc1cc2c(cc1Cl)[n+]([O-])c(C#N)c(N1CCN(c3ccc([N+](=O)[O-])cc3)CC1)[n+]2[O-]`, which GI50 is on record?
A: Its GI50 is inactive: > 83.4 µM.

Q: Which GI50 does the source give for `CC1=C[C@H]2C[C@@]3(C)O[C@@H]([C@]4(C)CC[C@H]([C@@H](C)C(=O)O)OO4)CC3C(C)(C)[C@H]2CC1` (some centres undefined) here?
A: The GI50 was inactive: 2.4 µM.

Q: `O=C(/C=N/c1ccccc1[S-])c1ccco1.O=C(/C=N/c1ccccc1[S-])c1ccco1.[Zn+2]` was tested. Which GI50 did it give?
A: Its GI50 is inactive: 3.44 µM.

Q: `N#C[BH2-][n+]1ccc(C(=O)NNCc2cccc(C(F)(F)F)c2)cc1` was tested. Which GI50 did it give?
A: Its GI50 is inactive: 15.7 µM.

Q: `C[C@@H]1OCC(O)C([C@H]2OC(c3ccccc3)=N[C@H]2CO)O1` (some centres undefined) was tested. Which GI50 did it give?
A: Its GI50 is inactive: > 100 µM.

Q: Which GI50 does the source give for `CCc1nc(N)nc(N)c1-c1ccc(NC)c([N+](=O)[O-])c1` here?
A: Its GI50 is active: 0.982 µM.

Q: For `c1ccc([P+](c2ccccc2)(c2ccccc2)c2ccc(-c3ccc([P+](c4ccccc4)(c4ccccc4)c4ccccc4)cc3)cc2)cc1`, which GI50 is on record?
A: The GI50 was inactive: 46.2 µM.

Q: `COc1cc2c(c(OC)c1OC)-c1ccc(SC)c(=O)cc1[C@@H](NC(=O)c1ccc(F)cc1)CC2` was tested. Which GI50 did it give?
A: The GI50 was active: 0.0798 µM.
